# The full ranking holds about 33,000 sequences; the median of “E-score (-0.5 to 0.5)” is about -0.035, and the highest 2% start at about 0.35. This is one part of the list.
# Biological target: T1, Pdr3 (UniProt P33200)
# T1 sequence: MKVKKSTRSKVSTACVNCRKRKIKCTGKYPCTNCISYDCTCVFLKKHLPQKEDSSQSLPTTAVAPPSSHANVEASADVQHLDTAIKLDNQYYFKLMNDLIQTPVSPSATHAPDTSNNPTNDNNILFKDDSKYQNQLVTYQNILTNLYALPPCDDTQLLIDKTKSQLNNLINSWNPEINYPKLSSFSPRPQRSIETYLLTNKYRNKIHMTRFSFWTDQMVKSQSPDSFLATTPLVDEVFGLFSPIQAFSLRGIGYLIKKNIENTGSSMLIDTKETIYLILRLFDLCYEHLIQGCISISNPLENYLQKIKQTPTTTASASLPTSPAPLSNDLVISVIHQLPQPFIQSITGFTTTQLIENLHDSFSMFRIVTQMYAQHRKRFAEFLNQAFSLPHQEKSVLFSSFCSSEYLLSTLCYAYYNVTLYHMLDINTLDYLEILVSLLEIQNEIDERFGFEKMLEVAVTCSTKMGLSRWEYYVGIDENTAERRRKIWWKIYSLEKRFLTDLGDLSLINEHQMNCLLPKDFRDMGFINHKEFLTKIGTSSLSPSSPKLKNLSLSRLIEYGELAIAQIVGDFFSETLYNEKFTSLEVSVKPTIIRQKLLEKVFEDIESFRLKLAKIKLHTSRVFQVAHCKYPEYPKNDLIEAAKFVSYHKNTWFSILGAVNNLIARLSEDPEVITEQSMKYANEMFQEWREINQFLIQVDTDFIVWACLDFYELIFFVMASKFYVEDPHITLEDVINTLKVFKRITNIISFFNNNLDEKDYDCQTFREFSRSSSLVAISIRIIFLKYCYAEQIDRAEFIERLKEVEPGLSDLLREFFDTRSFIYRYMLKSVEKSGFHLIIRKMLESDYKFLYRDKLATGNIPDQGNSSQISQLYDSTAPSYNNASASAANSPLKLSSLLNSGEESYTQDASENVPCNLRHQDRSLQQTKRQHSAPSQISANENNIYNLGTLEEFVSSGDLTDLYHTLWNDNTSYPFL
# Experiment: PBM E-score (8-mer binding enrichment) (E-score (-0.5 to 0.5)); higher = stronger / more preferred TF binding; most listed sequences are background and not binding sites
# Details: protein concentration: 200 nM; construct: GST-full length
# Experimental: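 Universal 'all 10-mer' protein binding microarrays (Agilent AMADID 015681) probed with GST-tagged S. cerevisiae TFs (full-length or DBD) made by in vitro transcription/translation (PURExpress), about 100-200 nM. Bound TF was detected with fluorescent anti-GST. Each ungapped 8-mer (which stands for itself and its reverse complement) is scored by the PBM enrichment score (E-score), a modified Wilcoxon-Mann-Whitney statistic from -0.5 to +0.5, computed with the Universal PBM Analysis Suite. Scale: above 0.35 generally sequence-specific binding.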
row,Sequence,PBM E-score
1,AGAACCGA,0.0498
2,GTACCCAA,-0.0916
3,CACATCTA,-0.00108
4,GACTAGTC,-0.254
5,AGTATACC,-0.0582
6,CAGAACCC,-0.0441
7,CTGCCCTC,-0.295
8,CCTCACAC,-0.202
9,ACTACTGC,-0.109
10,CGAGCTCC,0.17
11,GTTCCTAA,0.044
12,GCATGAGA,-0.0582
13,ACATTGAC,-0.0326
14,CCAACTCA,-0.0551
15,GGCACAAC,-0.0445
16,CAAAGGTA,-0.211
17,TGTTCCAA,-0.139
18,GAACCGTA,-0.0571
19,CCGCAGCG,0.161
20,GCGTAAAC,-0.0119
21,CTCGCTGA,-0.026
22,ACTTTGGC,-0.0628
23,ACTATCGA,-0.016
24,ATAAAACG,0.205
25,AGGGGTGA,-0.235

row,Sequence,PBM E-score
1,CAAACGGG,0.184
2,ATAGCGTC,-0.153
3,GCCACGCC,-0.137
4,CACTTCGA,-0.0223
5,CTACAGGC,-0.0559
6,GGTTGTAC,-9e-05
7,CAAAAATA,0.146
8,GTCGAAAC,0.0492
9,ATGAACGC,0.0678
10,TCCTATAA,-0.17
11,CAATAATG,-0.198
12,GAAGACAA,-0.0754
13,TGAAGAAA,0.0654
14,GCCTAGAA,-0.153
15,CTATCCGA,0.17
16,CCACATCC,0.0947
17,CAGACTGG,-0.237
18,CCAAATCC,0.169
19,GCGAGGGA,-0.0123
20,ACATTTCC,0.238
21,ACATGTTG,0.0079
22,GATTCAGC,0.0177
23,AGTTGCAC,-0.136
24,ATGTTAGC,-0.178
25,ACTCAATC,-0.115

row,Sequence,PBM E-score
1,TAGTTAGA,-0.154
2,CAGGTGCG,0.0828
3,AGTCGTGC,-0.228
4,AGGTCCCC,-0.0629
5,ACTGGCTC,-0.0586
6,AATCAACG,0.0182
7,ACGTTCGC,-0.135
8,CCATGAAC,0.159
9,AGAACGGC,0.106
10,TATGGACA,0.00453
11,CGAAATCG,0.164
12,CTTAGATC,-0.376
13,CTGAACAA,0.0725
14,CCTCCGAG,0.207
15,TGCAAGAA,0.0859
16,GAATGGAA,0.162
17,GGATCGGA,0.359
18,AAGGGTAA,0.0138
19,GATGGTCA,0.0334
20,AAATCAGG,-0.235
21,CCAGAGGA,0.00507
22,CCGAACGC,0.287
23,ACACGAGG,-0.218
24,AACGCGTG,-0.0323
25,AGGTTCAG,0.0188

row,Sequence,PBM E-score
1,CTTCCTCC,-0.13
2,CTTAAAAA,-0.227
3,AAGTCACC,-0.156
4,CTAAGCTA,0.00865
5,AGTCGGGC,0.0481
6,ACTGCTCC,0.22
7,GGAGCTGA,0.0619
8,CATGGACG,0.0495
9,CGCGCCGC,0.307
10,CTGTGCCA,-0.134
11,CGCTCCCG,0.175
12,ACCAACCC,-0.0153
13,ACGTCGGA,0.175
14,ACAGCTGA,-0.0273
15,AGAATTAT,0.076
16,CCCCGCAG,0.225
17,CCTCTATA,-0.199
18,ACGAAAAA,-0.196
19,GGGTCCCA,0.0605
20,CCGGCACG,0.279
21,CGGCTAAG,0.0549
22,AAAGCTAG,-0.177
23,CTCGAGGC,0.0164
24,CGAAGCCC,0.021
25,GGCCACAA,-0.0451

row,Sequence,PBM E-score
1,AAGCAGTG,-0.031
2,GAAACGGA,0.395
3,CGCAGGCC,0.109
4,CGCAGCGA,-0.00392
5,CGCGCGTC,0.207
6,ATTGTCGC,-0.00189
7,ATATGAGG,-0.0144
8,AGGTGACG,-0.166
9,AAGAGTCG,-0.0684
10,CCCGAGAA,0.333
11,ATACCCAG,-0.116
12,ATTGAACA,-0.0508
13,CACGTCAC,-0.111
14,GGGATCCA,0.222
15,CGTGTAGA,0.0113
16,CAATATAA,0.101
17,TGCGAGCA,-0.00946
18,CGTACGGC,-0.0531
19,ATATAACG,0.135
20,ACTGTATG,-0.0881
21,CGGCCAGA,0.207
22,ACGGCTAG,-0.152
23,GGTGACTA,-0.0832
24,CCTGATGC,0.0727
25,AACCCATT,0.0501

row,Sequence,PBM E-score
1,ACCCTGAT,-0.0817
2,AACGATGG,-0.127
3,ACAGAACT,0.0304
4,AATCTAAA,0.0142
5,CTGATATC,0.12
6,AGATGAGA,-0.0989
7,GCAAGGAC,0.0375
8,GCACCTGA,-0.0993
9,AAGACAAC,0.0867
10,GCGGAAAA,0.397
11,AAGTCTAG,-0.167
12,ACCATGAC,-0.0124
13,ACACAGTA,-0.212
14,ATTTGACC,-0.0303
15,ATGATATG,0.129
16,GTGCACGA,-0.211
17,GGAGTGAC,0.0735
18,CAGAGAGG,-0.207
19,CCTTCTCG,-0.185
20,ATCACCAC,0.0735
21,ATAAGGGC,-0.0725
22,ACTTAGCG,0.0608
23,AGGCAAAC,-0.158
24,GTCGAACA,0.0922
25,ACTTTGAA,-0.202

row,Sequence,PBM E-score
1,CAGTAGTC,-0.229
2,CACCGCTC,0.0532
3,ACATTCAC,0.05
4,ACGTTAAC,-0.152
5,CGAAGATA,0.129
6,ATTTGATG,-0.0575
7,ACGCTCTG,-0.278
8,CCACCATA,0.0173
9,GTCTCCCA,-0.203
10,ATTGACTA,-0.0725
11,CCAGGGAG,-0.278
12,CTCTTGGA,-0.13
13,GAAATCTC,0.0634
14,GGCCGTCA,-0.0338
15,AGAAGGGG,-0.228
16,CATCCTTA,-0.18
17,CCTGCGCG,0.113
18,CCGCCTCA,0.161
19,ATCATCCG,0.276
20,TCGGCACA,0.194
21,GACGGCCC,-0.0587
22,ACCCGGCT,0.24

# — the supplement of paper PMC3334620
